Laboratory results reported in the RNAGym collection of RNA variant scans (doi:10.7554/elife.90254).
The source gives no read counts; variants with many changes may rest on few reads.

B1: LINE1-mini (parent)
chain: GGCAGAGCUCAACACAGCGUGGCAAAGUGGCUGUGGCUAGACUGCC

Variants of: B1
Experiment: self-cleavage, relative activity (ratio to wild type); higher = more cleavage; in vitro, sequencing; the parent is a self-cleaving ribozyme

Row | Variant | self-cleavage
1 | GGCAGAACUCAACACAGCGUGACAAAGUGGCUGUGGCUAGACUGCU [G7A G22A C46U] | 0.07
2 | GGCAGAACUCAACACAGCGGGGCAAAAUGGCUGUGGCUAGACUGCC [G7A U20G G27A] | 0.02
3 | GGCAGACUUCAACACAGCGUAGCAAUGUGGCUGUGGCUAGACUGCC [G7C C8U G21A A26U] | 0.19
4 | GGCAGACGUCAACACAGCGUGGCAAAGUGGCUGUAGCUAUUCUGCC [G7C C8G G35A G40U A41U] | 0.19
5 | GGCAGAACUCAACACAGCGUGGCAAAGUGGCUGCCGCUAGCCUGAC [G7A U34C G35C A41C C45A] | 0.02
6 | GGCAGACCUCAACACAGCGUGGCACAGUGCCUGUGGCGAGACUGCC [G7C A25C G30C U38G] | 0
7 | GGCAGACCUCAACCCAGAGUGGCAAAUUGGCUGUGGCUAGACUGCC [G7C A14C C18A G27U] | 0.08
8 | GGCAGACCUCAACGCAGCGUGGCAAAUUGGCUGUGUCUAGACUCCC [G7C A14G G27U G36U G44C] | 0.02
9 | GGCAGACGUCAGCACAGCGAGGCAAAGUGGCUGUGGCUAGACUGCC [G7C C8G A12G U20A] | 0.09
10 | GGCAGAACUCAACACAGCGUGGCAAACUGGCUGUGGCUAGCCUGCU [G7A G27C A41C C46U] | 0.08
11 | GGCAGACCUCAACACAGCGUGGCAACGUGUCUGUCGCUAGACUGCC [G7C A26C G30U G35C] | 0.06
12 | GGCAGAACUCAACACAGCGUGACGAAGUGGCUGUGGCUAGACUUCC [G7A G22A A24G G44U] | 0.1
13 | GGCAGAACUCAACACAGCGUGCCAAAGUGGCUUUGGCAAGACUGCC [G7A G22C G33U U38A] | 0.11
14 | GGCAGACCUCAACGCAGCCUGGCAAAGUGGCUGUGGCUAGACUGCC [G7C A14G G19C] | 0.04
15 | GGCAGACCUCAACACAGCGUGGCGAAGCGGCUGUUGCUAGACUGCC [G7C A24G U28C G35U] | 0.5
16 | GGCAGACAUCAACACAGCAUGGCCAUGGUGCUGUGGCUAGAGAGCC [G7C C8A G19A A24C A26U U28G G29U C42G U43A] | 0.07
17 | GGCAGAACUCAACACAGCGGUGCAAAGUGGCUGUGGCUACACUGCA [G7A U20G G21U G40C C46A] | 0.33
18 | GGCAGAACGCAACACAGCGUGGCAAAGUGGCUAUGGCUAGACUGAC [G7A U9G G33A C45A] | 0.02
19 | GGCAGAACUCAACACAGCGUGGCAAAGUGGCUGCGGAUAGACUGCC [G7A U34C C37A] | 0.15

Row | Variant | self-cleavage
20 | GGCAGAACUCAACACAGCGUGGCAAAGUUGCUGUGGCUAGAAUGCC [G7A G29U C42A] | 0.04
21 | GGCAGAACUCAACACAGCGUGGCAAAGUGGCUGUUGCUAGACUGCG [G7A G35U C46G] | 0.06
22 | GGCAGAACUCAACACAGCGUGGCAAAGUGGCUGUGGCUAAACUGCA [G7A G40A C46A] | 0.34
23 | GGCAGACCUCAACACAGCGUGGCUAACUGAAUGUGGCUAGACUACC [G7C A24U G27C G30A C31A G44A] | 0.23
24 | GGCAGACCUCAUCGCAGCGUGGCAAAGUGGCUGUGCCUAGACUGCC [G7C A12U A14G G36C] | 0.06
25 | GGCAGAACUCAACACAGCGUGGCAAAGUGGCUGCGGCGAGACUGCC [G7A U34C U38G] | 0.01
26 | GGCAGAACCCAACACAGCGUGGCAAAGUACCUGUGGCUAGAUUGCC [G7A U9C G29A G30C C42U] | 0.02
27 | GGCAGAACGCAACACAGCGUGGCAUAGUGGCUUUUGCUAGACUGCA [G7A U9G A25U G33U G35U C46A] | 0.01
28 | GGCAGACCUCAACUCAGCGUGGCAAAGUGGCUGUGGCUAGACCGCC [G7C A14U U43C] | 0.2
29 | GGCAGACCUCAGCACAGCGUCGCAAAGUGGCUGAGGCUAGACUGCC [G7C A12G G21C U34A] | 0.01
30 | GGCAGACCUCAACACAGCGUGGCAAGGAGGCUUUGGCUAGACUGCC [G7C A26G U28A G33U] | 0.05
31 | GGCAGAACUCAACACAGCGAGGAAAAGUGGCUGUGGGAAGACUGCC [G7A U20A C23A C37G U38A] | 0.01
32 | GGCAGACCUCAACACGGCCUGGCAAUGUGGCUGUGGCUAGACUGCG [G7C A16G G19C A26U C46G] | 0.03
33 | GGCAGACCUCAACUCAGCGUGGAAAAGUGGCUGUCGCUAGACUGCC [G7C A14U C23A G35C] | 0.11
34 | GGCAGAACCCCACACAGCGUGGCCAAGUGGCUAUGGCUAGACUGCC [G7A U9C A11C A24C G33A] | 0.02
35 | GGCAGACAUCAACACAGCGUAGCAAAGUGGCUGUGGCUAGACUGCC [G7C C8A G21A] | 0.3
36 | GGCAGACCUCAACACAGCGUGGCUGAGUGGUUGUGGCUAGCCUGCA [G7C A24U A25G C31U A41C C46A] | 0.01
37 | GGCAGACCUCAACGCAACGUGGCAAAGUGGCUGUGGCUAGACUGCC [G7C A14G G17A] | 0.06
38 | GGCAGACCUCAACACUGCGUGGCAAAGCGGCUGUGGCUAGUCUGCC [G7C A16U U28C A41U] | 0.13

Row | Variant | self-cleavage
39 | GGCAGAACUCAACACAGCGUGCCAAAGUAGCUGUGGCUAGACUGCC [G7A G22C G29A] | 0.1
40 | GGCAGACCUCAACUCAGCGUGCCAAAGUGGCUGUCGCUAGACUGCC [G7C A14U G22C G35C] | 0.06
41 | GGCAGAACUCAACACAGCGUGGCAAAGUGGCUCUGGCUUGACUGCC [G7A G33C A39U] | 0.01
42 | GGCAGACGUCAUCACAGCGUGGCACUGUGGCUGUGGCUAGGCUACC [G7C C8G A12U A25C A26U A41G G44A] | 0.05
43 | GGCAGACCUAAACACAGAAUGGCAAAGUGGCUGUUGAUAGACUGCC [G7C C10A C18A G19A G35U C37A] | 0.04
44 | GGCAGAACUCAACACAGCGUGUCAAAGUGGCUGUGCCUAGACUGCC [G7A G22U G36C] | 0.09
45 | GGCAGACUUCCACACAACGUGGCAAAGUGGCUGUGGCUAGACUCCC [G7C C8U A11C G17A G44C] | 0.03
46 | GGCAGACCUCAACACAGCGUGGCAAUGUGGCUGUGGCUGGACGGCC [G7C A26U A39G U43G] | 0
47 | GGCAGAACUCAACACAGCGGGGCGAAGUGGCUGUGGCUAGACUACC [G7A U20G A24G G44A] | 0.05
48 | GGCAGACCUCAACGCAGCGUGGCAAAGUGGCUGUGGCUAGUCUGCC [G7C A14G A41U] | 0.18
49 | GGCAGAACUCAACACAGCGUCGCAAAGUGGCUGUGGCUAGACUUGC [G7A G21C G44U C45G] | 0.04
50 | GGCAGACCUCUACACAGCGUGUAUAAUUGGCUGUGGCUAGACUGCC [G7C A11U G22U C23A A24U G27U] | 0.03
51 | GGCAGACCUCAUCAUAGAGUGGCAAAGUGGCUCUGCCUAGACCGCA [G7C A12U C15U C18A G33C G36C U43C C46A] | 0.01
52 | GGCAGACCUCUACACAGCGUGGCAAAGUGGCUGUUGCUAGACUGCC [G7C A11U G35U] | 0.03
53 | GGCAGAACUCAACACAGCGUGACAAAGUGGCUGUGGCUGGACUGCC [G7A G22A A39G] | 0.05
54 | GGCAGAACGCAACACAACGUGGCAGAGAGGCUGUGGCUAGACUGCC [G7A U9G G17A A25G U28A] | 0.1
55 | GGCAGACCUCAACUCAGCGUGGCAAAGUGGCUGUCGCUAGACUGUC [G7C A14U G35C C45U] | 0.1
56 | GGCAGACUUCAACACUGCGUGGUAAACUGGCUGUGGCUAGACUGCC [G7C C8U A16U C23U G27C] | 0.38
